Screen size: about 310,000 compounds; about 11,000 (3.5%) were called active. The shares of active, inactive and inconclusive entries below differ from those in the screen. The call rests on the fitted dose curve; in most records, active means well fitted inhibition curve with a large enough effect; inconclusive means small, poorly fitted or top-dose-only effect, or effect the other way; inactive means flat fitted curve, though single readings scatter. Potencies of inconclusive entries are left out as doubtful fits.
Test: VP16 counterscreen qHTS for inhibitors of ROR gamma transcriptional activity;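 further: Gal4-VP16 expression switched on by copper sulfate through the metallothionein promoter; nearly all actives have a fitted effect of over 50% in size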
Conditions: Drosophila S2 Gal4-VP16 UAS-luciferase, luminescence, 20 h; activity, negative = inhibition: at 53.6 µM (top of the series)
On the % scale 0 is the no-effect control and ±100 the full control effect; potency means the concentration at half of the fitted maximal effect; tags describe the fitted curve by direction and shape.

Which Potency does the source give for O=C(NC1CC1)c1cccc(Nc2ccc(-c3ccc4c(c3)OCCO4)nn2)c1 here?
The Potency was inconclusive [inhibitor, partial curve].

For Cn1c(SCc2ccccc2)nnc1-c1ccco1, which Potency is on record?
Its Potency is inconclusive [activator, full curve, poor fit].

For CCC(c1nnnn1Cc1ccccc1)N1CCN(C(=O)c2ccco2)CC1 (configuration not stated), which “activity, negative = inhibition” value is on record?
Its value is inactive: 8.17%.

For O=C(COc1ccc2ccccc2c1)NNC(=O)Nc1ccc(F)cc1F, which “activity, negative = inhibition” value is on record?
Its value is inactive: -7.24%.

With CCOC(=S)N/C(=N\S(=O)(=O)c1ccccc1)c1ccccc1 as the compound, how does the Potency read?
The Potency was inconclusive [inhibitor, single point].

For CC1=NN(C(=O)c2cc(C)nn2C)C(O)(C(F)(F)F)C1 (configuration not stated), which Potency is on record?
Its Potency is inconclusive [inhibitor, single point].

With N#Cc1ccc(-c2cccnc2)nc1SCc1ccc(Cl)cc1Cl as the compound, how does the Potency read?
The Potency was inconclusive [inhibitor, single point].

Which Potency does the source give for C/C(=N\NC(=O)c1ccc(O)cc1)c1ccc(NC(=O)Cc2ccccc2)cc1 here?
Its Potency is inconclusive [inhibitor, single point].

For COc1ccc(/C=N/Nc2ncnc3sc(C)c(C)c23)cc1, which Potency is on record?
Its Potency is active: 4.47 µM.

With CC(=O)N1CCN(c2ccc(NCc3ccc(F)cc3)cc2)CC1 as the compound, how does the “activity, negative = inhibition” value read?
The value was inactive: 10.6%.

With O=c1cc(-c2ccc(F)cc2F)[nH]c2ccc(F)cc12 as the compound, how does the “activity, negative = inhibition” value read?
The value was inactive: -6.86% [at 96.6 µM].

Which Potency does the source give for C/C(=N\NC(N)=S)c1cc(-c2ccccc2)c(-c2ccccc2)s1 here?
Its Potency is active: 1.41 µM.

Which Potency does the source give for COc1ccccc1/C=C/c1nc(S(=O)(=O)c2ccccc2)c(N(C)C)o1 here?
The Potency was inconclusive [inhibitor, single point].

Which Potency does the source give for O=C(NCc1ccccc1)NC(=O)c1ccccc1 here?
The Potency was inconclusive [inhibitor, single point].

Which Potency does the source give for C=CCc1cccc(C2Nc3ccccc3C(=O)N2O)c1O (configuration not stated) here?
The Potency was inconclusive [inhibitor, single point].

For COCCn1c(=S)[nH]c2cc(C(=O)N3CCN(c4cccc(Cl)c4)CC3)ccc2c1=O, which Potency is on record?
The Potency was inconclusive [inhibitor, single point].

With O=c1sc(N2CCN(c3ccccc3F)CC2)nc2ccsc12 as the compound, how does the Potency read?
The Potency was inconclusive [activator, single point].

With OC(CN1CCN(c2ccccn2)CC1)Cn1c2ccc(Cl)cc2c2cc(Cl)ccc21 (configuration not stated) as the compound, how does the Potency read?
The Potency was inconclusive [inhibitor, single point].

Which Potency does the source give for O=C(CSc1nnc(-c2cccnc2)o1)c1cc2ccccc2oc1=O here?
The Potency was active: 3.98 µM.

For Cc1cccc(-c2nc3c(c(SCC(=O)N4CCOCC4)n2)Cc2c(CO)cnc(C)c2O3)c1, which Potency is on record?
Its Potency is inconclusive [inhibitor, single point].

With CCOC(=O)C1=C(O)/C(=C\c2cc(C)n(-c3ccc(F)cc3)c2C)N=C1C as the compound, how does the “activity, negative = inhibition” value read?
Its value is inactive: 9.82%.

With O=C(NNC(=S)Nc1ccc(Br)cc1)c1ccccc1Br as the compound, how does the Potency read?
The Potency was inconclusive [inhibitor, partial curve].

With COc1cc(CNc2ccc3[nH]c(=O)[nH]c3c2)ccc1OCc1ccccc1Cl as the compound, how does the “activity, negative = inhibition” value read?
Its value is inactive: -20.5%.

Which Potency does the source give for O=C(Cn1nnc(-c2ccccc2Cl)n1)N/N=C/c1ccc(-c2cccc(Cl)c2)o1 here?
The Potency was active: 6.31 µM.

Which Potency does the source give for O=C1C=C(Nc2ccccc2O)c2ccccc2C1=O here?
Its Potency is active: 10 µM.

Which Potency does the source give for COc1ccc(NC(=O)Nc2ccc(F)c(Cl)c2)cc1 here?
Its Potency is inconclusive [activator, single point].

Which “activity, negative = inhibition” value does the source give for O=C(O)CSc1cccc[n+]1[O-] here?
Its value is inactive: 10.2%.

For COc1cccc(NC(=S)Nc2ccc(F)cc2)c1, which Potency is on record?
The Potency was inconclusive [inhibitor, single point].

With Cc1nc([N+](=O)[O-])c(Br)n1CC(=O)c1ccc2ccccc2c1 as the compound, how does the Potency read?
Its Potency is inconclusive [inhibitor, single point].

Which “activity, negative = inhibition” value does the source give for O=C(N/N=C/c1ccccc1[N+](=O)[O-])c1cccs1 here?
Its value is inactive: 4.76%.

Which Potency does the source give for CC1CN(S(=O)(=O)c2ccc(C(=O)Nc3ccc(S(=O)(=O)N4CCOCC4)cc3)cc2)CC(C)O1 (configuration not stated) here?
The Potency was inconclusive [inhibitor, single point].

Which Potency does the source give for CCCCc1c(C)c(C#N)c2[nH]c3ccccc3n2c1=O here?
Its Potency is inconclusive [inhibitor, single point].

For N=C1N(/N=C/c2ccccc2)C(=Nc2ccccc2)C(=S)N1c1ccccc1, which Potency is on record?
The Potency was active: 5.01 µM.

Which “activity, negative = inhibition” value does the source give for COc1ccc(-n2cc(-c3ccc(Cl)cc3)[nH]c2=S)cc1 here?
The value was inactive: 4.35%.

With O=C(N/N=C\c1ccc(Cl)cc1Cl)c1sccc1-n1cccc1 as the compound, how does the Potency read?
Its Potency is inconclusive [inhibitor, single point].

With Oc1ccc(CNc2ccc(F)cc2)c2cccnc12 as the compound, how does the Potency read?
The Potency was inconclusive [inhibitor, single point].

With CCOC(=O)C1(CCOC)CCN(Cc2nc(C(C)C)cs2)CC1 as the compound, how does the Potency read?
The Potency was inconclusive [activator, partial curve].

With Cc1cccc(C)c1NC(=O)Cn1cc(C=O)c2ccccc21 as the compound, how does the Potency read?
The Potency was inconclusive [inhibitor, single point].

Which Potency does the source give for COc1ccc(-c2oc3c(OC)c(OC)c(OC)c(O)c3c(=O)c2OC)cc1OC here?
Its Potency is inconclusive [inhibitor, single point].

With CC1(C)Cc2nc3sc4c(SCC(=O)O)ncnc4c3cc2CO1 as the compound, how does the Potency read?
Its Potency is active: 14.1 µM.

For COc1ccccc1CNc1nc(-c2ccccc2OC)nc2ccccc12, which Potency is on record?
The Potency was inconclusive [inhibitor, single point].

For Cc1cc(NC(=O)c2cc3n(n2)C(C(F)(F)F)CC(c2ccc(Cl)c(Cl)c2)N3)no1 (configuration not stated), which Potency is on record?
Its Potency is inconclusive [inhibitor, single point].

With C=CCn1c2ccccc2c2n[nH]c(=S)nc21 as the compound, how does the Potency read?
The Potency was active: 3.55 µM.

For COc1ccc(CCNC(=O)c2nn(C)c3c2CS(=O)(=O)c2ccccc2-3)cc1OC, which “activity, negative = inhibition” value is on record?
Its value is inactive: -1.12%.

For COCCSc1ccccc1C(=O)Nc1cc(C)ccn1, which “activity, negative = inhibition” value is on record?
The value was inactive: -10.8%.

With CCN(CC)CCNC(=O)c1cc(-c2cccnc2)nc2ccc(S(=O)(=O)N3CCC(C)CC3)cc12 as the compound, how does the “activity, negative = inhibition” value read?
Its value is inactive: -1.99%.

For Cc1cc(O)c(C(=O)/C=C/c2ccc(C(C)C)cc2)c(=O)o1, which Potency is on record?
Its Potency is inconclusive [inhibitor, single point].

Reference: PubChem BioAssay AID2546 (National Center for Advancing Translational Sciences (NCATS), 2010)
